# PubChem BioAssay (NCATS)
# This list was built around the results that the source calls inconclusive (neither active nor inactive); the mix of calls is not that of the screen. For some of these results: No potency is given beside an inconclusive call; the fits are too rough. The source holds several records for some structures; these can differ, active in one and inactive in another. Calls of active or inactive are those of the source. Unless noted, the call rests on the fitted dose curve; in most records, active means well fitted curve in the direction sought with a large enough effect; inconclusive means small, poorly fitted or top-dose-only effect, or another doubt; inactive means no such curve, though single readings can be large; an effect the other way counts as inactive or inconclusive.
# Legend:
# [1] = qHTS Screen of the MIPE 4.0 Collection Against Ewings Sarcoma (RDES) (AID 1259252); details: RD-ES Ewing sarcoma viability, CellTiter-Glo, 48 h; series mostly up to 45.8 µM; further: nearly all actives have a fitted effect of over 35% in size; further: potency means the concentration at half of the fitted maximal effect;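 on viability (percent of control): 100% = DMSO-treated cells and 0% = medium-only wells without cells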
# In short: (§1)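 Cells plated in serum-containing RPMI (5% FBS) and treated with compound dilutions for 48 h. Readout luminescent viability; normalization relied on vehicle (no inhibition) and media-only columns (full inhibition).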
# [2] = qHTS Screen of the MIPE 4.0 Collection Against Ewings Sarcoma (TC32) (AID 1259256); details: TC32 Ewing sarcoma viability, CellTiter-Glo, 48 h; series mostly up to 45.8 µM; further: nearly all actives have a fitted effect of over 45% in size; further: potency means the concentration at half of the fitted maximal effect;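 on viability (percent of control): 100% = DMSO-treated cells and 0% = medium-only wells without cells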
# In short: as §1
# [3] = qHTS Screen of the MIPE 4.0 Collection Against Ewings Sarcoma (EW8) (AID 1259255); details: EW8 Ewing sarcoma viability, CellTiter-Glo, 48 h; series mostly up to 45.8 µM; further: potency means the concentration at half of the fitted maximal effect; nearly all actives have a fitted effect of over 35% in size
# In short: as §1
# [4] = P-glycoprotein substrates identified in KB-8-5-11 adenocarcinoma cell line, qHTS therapeutic library screen (AID 1346987); details: KB-8-5-11 (P-gp overexpressing) viability, CellTiter-Glo, 72 h; series mostly up to 44.5 µM; further: nearly all actives have a fitted effect of over 65% in size; further: potency means the concentration at half of the fitted maximal effect
# In short: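 Steps: plate 500 KB-8-5-11 cells/well in DMEM + 10% FCS (colchicine removed); pin compounds in dose-response; incubate 72 h, 37 degree C, 5% CO2; add CellTiter-Glo, 5 min; read luminescence.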
# [5] = qHTS Assay for Identifying Gametocytocidal Compounds (AID 743244); further: potency means the concentration at half of the fitted maximal effect;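 on max response: on the % scale 0 is the no-effect control and ±100 the full control effect; actives lower the fluorescent signal which means gametocytes are killed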; details: P. falciparum 3D7 stage III-V gametocytes, alamarBlue, 72 h; max response: stronger effect = lower value
# In short: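 Viability read-out was resazurin reduction (alamarBlue, 24 h) measured at Ex 525/Em 598 nm. Beforehand, late-stage (III-V) 3D7 P. falciparum gametocytes at 20,000 cells/well were incubated with compound 72 h at 37C under 5% CO2.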
# [6] = molecular target: Atrial natriuretic peptide receptor 2 (Homo sapiens) (UniProt P20594); assay: Natriuretic polypeptide receptor (hNpr2) antagonism - Pilot subtype selectivity assay (AID 1347050; calls by dose curve; further: on the % scale 0 is the no-effect control and ±100 the full control effect); details: NPR2-expressing cells, cGMP antagonist-mode read-out; series mostly up to 38.3 µM
# In short: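 Pilot selectivity screen against hNpr2: HEK293 cGMP-sensor cells are treated with LOPAC1280 compounds, then with hNppC peptide at 1 nM final. The cGMP-driven luminescence change over 20 min at room temperature is the read-out.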
# [7] = Identifying Small Molecule Inhibitors of Pancreatic Cancer Stem Cells (A2780, Spheroid) (AID 1259357); details: Potency: A2780 spheroid viability; viability (percent of control): at 46.1 µM (top of the series);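 further: spheroids pre-formed over 14 days in stem cell medium on hydrogel; potency means the concentration at half of the fitted maximal effect; compound exposure lasted 48 h before the ATP luminescence read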
# In short: (§2)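 Spheroids grown 14 days in stem cell media on nonadherent hydrogel before screening; cells attached 4 h, then compound exposure 48 h at 37C, 5% CO2. CellTiter-Glo luminescence normalized to DMSO (no inhibition) and no-cell wells (full inhibition).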
# [8] = Identifying Small Molecule Inhibitors of Pancreatic Cancer Stem Cells (Panc1, Spheroid) (AID 1259359); details: Panc1 spheroid cancer stem cell viability; viability, % of control: at 46.1 µM (top of the series);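 further: potency means the concentration at half of the fitted maximal effect; compound exposure lasted 48 h before reading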
# In short: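 Endpoint: ATP-based luminescence, 48 h drug exposure. Bortezomib at 9.2 uM final as full-kill control; DMSO vehicle as negative control; activity normalized between vehicle and cell-free wells.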
# [9] = Identifying Small Molecule Inhibitors of Pancreatic Cancer Stem Cells (SN12C, Spheroid) (AID 1259360); details: Potency: SN12C spheroid viability; series mostly up to 46.1 µM; further: potency means the concentration at half of the fitted maximal effect
# In short: as §2
# [10] = Identifying Small Molecule Inhibitors of Pancreatic Cancer Stem Cells (Panc1, Adherent) (AID 1259362); details: Potency: viability; viability, % of control: at 46.1 µM (top of the series); further: potency means the concentration at half of the fitted maximal effect
# In short: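 After a 4 h attachment period, compounds were pinned into wells and cultures held 48 h under standard incubator conditions. Viability was then measured as CellTiter-Glo luminescence following 10 min at room temperature.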
# [11] = qHTS assay to identify small molecule inhibitors of chordoma cells - UCH-1 (AID 1259355); details: UCH-1 chordoma viability, CellTiter-Glo, 48 h, combination, with auranofin plus four topoisomerase inhibitors; series mostly up to 46.1 µM; further: potency means the concentration at half of the fitted maximal effect; nearly all actives have a fitted effect of over 55% in size
# In short: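 Seed 800 cells per well; incubate overnight at 37 C, 5% CO2. Add test compounds (15 concentrations), then the auranofin–topoisomerase-agent combination. Incubate 48hr, add CellTiter-Glo, wait 30min, read luminescence.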
# Tags describe the fitted curve by direction and shape.
# Sequence of UniProt P20594 (P20594 whole entry, looked up): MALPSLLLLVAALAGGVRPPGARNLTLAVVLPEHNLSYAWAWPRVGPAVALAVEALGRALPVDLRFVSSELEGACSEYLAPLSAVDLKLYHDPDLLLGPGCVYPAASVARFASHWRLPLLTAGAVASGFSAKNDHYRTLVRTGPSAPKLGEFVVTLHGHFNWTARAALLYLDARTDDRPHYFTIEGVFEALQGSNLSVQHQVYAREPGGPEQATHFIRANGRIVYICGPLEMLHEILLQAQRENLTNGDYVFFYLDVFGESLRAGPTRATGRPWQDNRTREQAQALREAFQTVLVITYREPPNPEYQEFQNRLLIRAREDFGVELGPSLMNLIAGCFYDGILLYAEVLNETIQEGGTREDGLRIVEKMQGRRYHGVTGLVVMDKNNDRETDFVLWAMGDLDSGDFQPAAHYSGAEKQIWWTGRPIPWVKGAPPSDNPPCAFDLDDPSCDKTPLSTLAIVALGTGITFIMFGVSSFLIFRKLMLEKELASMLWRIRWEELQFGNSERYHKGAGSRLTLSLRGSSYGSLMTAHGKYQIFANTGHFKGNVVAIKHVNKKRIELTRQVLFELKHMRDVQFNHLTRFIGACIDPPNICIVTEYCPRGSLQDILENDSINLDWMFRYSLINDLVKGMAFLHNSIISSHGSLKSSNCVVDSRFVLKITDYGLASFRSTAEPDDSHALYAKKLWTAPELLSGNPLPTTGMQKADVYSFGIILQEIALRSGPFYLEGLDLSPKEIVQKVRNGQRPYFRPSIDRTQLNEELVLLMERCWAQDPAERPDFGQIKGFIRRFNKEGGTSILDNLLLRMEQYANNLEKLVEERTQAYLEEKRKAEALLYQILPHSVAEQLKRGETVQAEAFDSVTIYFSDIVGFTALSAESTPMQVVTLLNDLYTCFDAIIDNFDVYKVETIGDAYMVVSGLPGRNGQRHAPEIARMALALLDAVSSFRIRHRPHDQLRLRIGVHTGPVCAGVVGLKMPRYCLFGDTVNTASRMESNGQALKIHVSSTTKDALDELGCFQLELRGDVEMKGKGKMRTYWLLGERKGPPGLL
compound,measurement,setting,value
CC(C)Nc1cc(C(F)(F)F)cc2nc(NC(=O)c3cccnc3)nn12,Potency,[1],active: 11.8 µM
same,Potency,[2],inactive
C=C[C@@H]1CN2CCC1C[C@@H]2C(O)c1ccnc2ccc(OC)cc12 (stereo partly drawn),Potency,[1],active: 3.72 µM
same,Potency,[3],"inconclusive [inhibitor, partial curve, poor fit]"
same,Potency,[4],inactive
N[C@@H](CC(=O)N1CCn2c(nnc2C(F)(F)F)C1)Cc1cc(F)c(F)cc1F,Potency,[1],"inconclusive [inhibitor, single point]"
same,Potency,[2],active: 23.5 µM
Cc1ccc(C2=Nc3ccc(Cl)cc3OC2)cc1,Potency,[1],"inconclusive [inhibitor, partial curve, poor fit]"
same,Potency,[2],"inconclusive [inhibitor, full curve, poor fit]"
CC(=O)O[C@]1(C(C)=O)CC[C@H]2[C@@H]3C=C(Cl)C4=CC(=O)[C@@H]5C[C@H]5[C@]4(C)[C@@H]3CC[C@@]21C,Potency,[1],active: 9.35 µM
same,Potency,[3],"inconclusive [inhibitor, single point]"
same,Potency,[4],inactive
CN1CCN2c3ncccc3Cc3ccccc3C2C1 (stereo not drawn),max response,[5],inactive: 6.21%
same,Potency,[1],inactive
same,Potency,[3],"inconclusive [inhibitor, partial curve, poor fit]"
same,Potency,[4],"inconclusive [inhibitor, single point]"
CCNC(=O)Nc1ccc2ncc(Nc3ccc(C)cc3)nc2n1,Potency,[1],active: 0.332 µM
same,Potency,[2],active: 1.32 µM
O=c1ccc2ccc(O)c(O)c2o1,Potency,[5],"inconclusive [inhibitor, partial curve]"
same,Potency,[1],"inconclusive [inhibitor, partial curve]"
same,Potency,[3],"inconclusive [inhibitor, partial curve]"
NC(=O)c1ccc2[nH]ccc2c1,Potency,[1],inactive
same,Potency,[2],inactive
NC[C@H]1O[C@H](O[C@@H]2[C@@H](O)[C@@H](O[C@H]3O[C@H](CO)[C@@H](O)[C@H](N)[C@@H]3O)[C@H](N)C[C@@H]2N)[C@H](O)[C@@H](O)[C@H]1O,Potency,[1],inactive
same,Potency,[2],"inconclusive [inhibitor, full curve, poor fit]"
CCCN[C@H]1CCc2nc(N)sc2C1,Potency,[1],inactive
same,Potency,[2],inactive
CCCCC(C)(C)[C@H](O)C=C[C@H]1[C@H](O)CC(=O)[C@H]1CC=CCCCC(=O)O,Potency,[1],inactive
same,Potency,[3],"inconclusive [inhibitor, single point]"
same,Potency,[4],inactive
Cn1cnc2c1c(=O)[nH]c(=O)n2C,Potency,[1],"inconclusive [inhibitor, single point]"
same,Potency,[3],active: 23.5 µM
same,Potency,[4],active: 16.6 µM
same,Potency,[6],inactive
Cc1c(O)cccc1C(=O)N[C@@H](CSc1ccccc1)[C@H](O)CN1C[C@H]2CCCC[C@@H]2C[C@@H]1C(=O)NC(C)(C)C,Potency,[1],"inconclusive [inhibitor, single point]"
same,Potency,[2],"inconclusive [inhibitor, single point]"
same,Potency,[4],"inconclusive [inhibitor, single point]"
Cc1cn2c(-c3cn[nH]c3)cnc2c(Nc2ccc(C(=O)N3CCNCC3)cc2F)n1,Potency,[5],active: 23.5 µM
same,Potency,[1],active: 16.6 µM
same,Potency,[2],active: 13.2 µM
same,Potency,[7],"inconclusive [rising, full curve, poor fit]"
same,Potency,[8],"inconclusive [cytotoxic, full curve, poor fit]"
same,Potency,[9],"inconclusive [cytotoxic, single point]"
same,Potency,[10],"inconclusive [rising, full curve, poor fit]"
Cc1noc(NS(=O)(=O)c2ccc(N)cc2)c1C,Potency,[1],inactive
same,Potency,[2],inactive
same,Potency,[4],inactive
C[C@H]1C[C@@H]2[C@@H]([C@@H](O)C[C@@]3(C)[C@H]2CC[C@]3(O)C(=O)CO)[C@@]2(C)C=CC(=O)C=C12,Potency,[1],inactive
same,Potency,[2],inactive
same,Potency,[11],inconclusive [cytotoxic]
CC(CCc1ccc(O)cc1)NCCc1ccc(O)c(O)c1 (stereo not drawn),Potency,[5],"inconclusive [inhibitor, single point]"
same,Potency,[1],"inconclusive [inhibitor, single point]"
same,Potency,[2],"inconclusive [inhibitor, single point]"
same,Potency,[11],"inconclusive [cytotoxic, single point]"
same,Potency,[4],"inconclusive [inhibitor, single point]"
CNC(=O)[C@H](Cc1ccccc1)NC(=O)[C@H](CC(C)C)[C@H](CSc1cccs1)C(=O)NO,Potency,[1],"inconclusive [inhibitor, partial curve, poor fit]"
same,Potency,[2],inactive
same,Potency,[4],inactive
